# Data published in the BET-seq Pho4 binding data (Le et al. 2018).
# The other results are listed elsewhere or left out. These are noisy estimates, calculated here from bound and input reads.
# Molecular target: T1, Pho4 (S. cerevisiae) (UniProt P07270)
# T1 sequence: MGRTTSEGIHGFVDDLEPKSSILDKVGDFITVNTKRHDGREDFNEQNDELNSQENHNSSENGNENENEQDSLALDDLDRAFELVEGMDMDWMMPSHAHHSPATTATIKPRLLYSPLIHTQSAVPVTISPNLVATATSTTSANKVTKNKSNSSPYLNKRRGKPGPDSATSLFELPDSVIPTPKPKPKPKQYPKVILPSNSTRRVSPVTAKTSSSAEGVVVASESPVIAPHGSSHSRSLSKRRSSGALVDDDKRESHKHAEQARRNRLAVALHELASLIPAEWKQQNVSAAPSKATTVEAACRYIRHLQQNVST
# Assay: relative binding free energy (BET-seq); higher = weaker binding
# Details: reference: library average
row,Sequence,relative binding free energy [kcal/mol]
1,CCGTTCACGTGGGTGC,0.23
2,AGTCTCACGTGATTGG,0.17
3,GGGTACACGTGGACGG,0.08
4,TTACTCACGTGTTAGG,0.14
5,GTAGACACGTGGGTTA,-0.12
6,GAGTACACGTGTGATG,0.12
7,ATAAGCACGTGGTTGT,-0.21
8,GGATTCACGTGAGGGA,0.36
9,ATTATCACGTGTGGAG,0.1
10,TTCGACACGTGTGCGG,-0.01
11,TAGGGCACGTGTTATA,-0.17
12,ATGAGCACGTGGTGAC,-0.11
13,TTTGTCACGTGGGGAT,0.01
14,TAGAGCACGTGGCGGC,-0.17
15,GTTTCCACGTGATTGA,0.4
16,AAGTACACGTGCGTGG,-0.05
17,TTTTGCACGTGTGAAG,0.08
18,TTTAACACGTGGGAGA,-0.18
19,AATCGCACGTGGGCGT,-0.15
20,TCCGCCACGTGTTGGT,0.14
21,TTATGCACGTGTCGTG,0.04
22,AGTGACACGTGTTAGG,0.06
23,TTTGGCACGTGGAAAA,-0.14
24,TTGATCACGTGGGATG,0.03
25,GAGGGCACGTGTAGCG,0.02
26,TTGTTCACGTGATGCA,0.25

row,Sequence,relative binding free energy [kcal/mol]
1,GTGTACACGTGAGGGT,0.34
2,TATAGCACGTGCAGGG,-0.12
3,TGTTTCACGTGATGGG,0.44
4,CTTGTCACGTGTTAGT,0.05
5,TAGTACACGTGTCGGG,0.22
6,GTAGGCACGTGGCCGG,-0.13
7,GTATTCACGTGAGGGC,0.42
8,AAGGGCACGTGTGGAG,-0.11
9,AATTTCACGTGTACTT,0.2
10,GGAATCACGTGTTAAG,0.19
11,CTGGCCACGTGCGTGG,-0.18
12,GTCTGCACGTGGGATT,0.05
13,TACGTCACGTGAATGT,0.27
14,TTAATCACGTGGGTAT,-0.03
15,TGGAACACGTGCATGT,0.2
16,TTGGGCACGTGGAAAG,0.08
17,AGCGGCACGTGGGCTT,-0.29
18,GTCTTCACGTGATTGA,0.4
19,GTCGGCACGTGGTCGG,-0.08
20,CTGGGCACGTGTTGTC,0
21,ATATGCACGTGATGAT,0.12
22,TAGTTCACGTGAATCG,0.31
23,AAGTGCACGTGTGAGG,0.14
24,TGTACCACGTGTCGTG,0.04
25,CGTAACACGTGGATTG,0.07
26,CGTGGCACGTGGGGTA,-0.17

row,Sequence,relative binding free energy [kcal/mol]
1,ATAATCACGTGTCGTG,0.19
2,TAAGACACGTGAGTGG,0.28
3,AAGTACACGTGAATGT,0.22
4,TCCTTCACGTGAGTGG,0.41
5,TGGTACACGTGCGGGT,0.02
6,AAGCTCACGTGCGGGG,0.22
7,CAAGGCACGTGTGCGG,-0.14
8,TGGGACACGTGGGTCA,-0.01
9,GGATTCACGTGTGCTG,0.28
10,TCGTTCACGTGAGTAT,0.41
11,ATCTGCACGTGTAGGG,0.02
12,GTTAACACGTGGTAGT,0.04
13,AGTTGCACGTGTATTA,-0.05
14,TTGACCACGTGAGTTT,0.3
15,CTTGTCACGTGCGGAG,0.03
16,ATTGGCACGTGCGTGC,-0.29
17,GAATTCACGTGGGTAT,0.26
18,TTCGGCACGTGAGGCT,0.13
19,TGTAACACGTGGACTG,0.01
20,GATGGCACGTGTATAG,-0.01
21,CTTGTCACGTGGGTCT,-0.09
22,GCTAGCACGTGAGTAG,0.36
23,AGCTGCACGTGCGTGG,-0.11
24,ATTCTCACGTGGCGTG,0.14
25,GTGAGCACGTGTGAGT,-0.04
26,CTGTGCACGTGGTGGG,-0.13

row,Sequence,relative binding free energy [kcal/mol]
1,TTGTTCACGTGTTCTT,0.28
2,ACGTTCACGTGTTCGT,0.2
3,CGTGGCACGTGAAGGT,0.09
4,GTTGTCACGTGAGTAG,0.39
5,GTTGGCACGTGATTCT,0.05
6,AATCACACGTGTTGTG,0.13
7,GGCAACACGTGCGGGG,0.02
8,GGGAGCACGTGAGATG,0.38
9,TTTAACACGTGAATAT,0.26
10,GGTATCACGTGCGATG,0.14
11,TGACACACGTGTGGGG,0.06
12,GGTGTCACGTGCTTGA,-0.03
13,TTGGGCACGTGCGACG,-0.1
14,CGAGGCACGTGTGCTT,-0.08
15,TATAACACGTGGTGTA,-0.18
16,TGACGCACGTGGGGAT,-0.21
17,CCATGCACGTGGGGGT,-0.16
18,CGGGGCACGTGATCGG,-0.17
19,GGCTGCACGTGTCTGG,0.11
20,GGCGCCACGTGATGGG,-0.01
21,AATGACACGTGTGTGT,-0.03
22,AGTGACACGTGTTAGT,0
23,GTTAGCACGTGATGGG,0.26
24,GTCTTCACGTGGTCTT,0.2
25,GTTATCACGTGATTGT,0.32
26,ATTTGCACGTGTGCGG,0.01

row,Sequence,relative binding free energy [kcal/mol]
1,ACTTGCACGTGATGTA,0.04
2,ATGTTCACGTGGCTGG,0.2
3,ATGTGCACGTGTTGGG,-0.06
4,GGTATCACGTGGCGTT,0.04
5,GAGTTCACGTGAAAGG,0.4
6,GTTTACACGTGTAGTT,0.25
7,CGTATCACGTGTCGGG,0.18
8,CGTGACACGTGACGGG,0.18
9,AGCGTCACGTGTTGGT,0.22
10,CAGGGCACGTGGGCTA,-0.24
11,GTTGGCACGTGGACTG,-0.07
12,TAGGTCACGTGGTCCT,0.08
13,AATGACACGTGGATTT,0.06
14,AAGGGCACGTGATCGG,-0.26
15,TGAATCACGTGGGGCA,0.02
16,GGCTGCACGTGGGGTC,-0.23
17,GTGGGCACGTGACAGG,-0.02
18,CGGATCACGTGTCGGG,0.21
19,ATGTCCACGTGAGGGA,0.23
20,TATGTCACGTGATGGA,0.12
21,GGGAGCACGTGAGTGA,0.18
22,GTATTCACGTGTAGCG,0.21
23,AATGACACGTGGAGTA,0.12
24,GTTATCACGTGTGTTA,0.14
25,CAAATCACGTGTAGGT,0.17
26,GGAAGCACGTGAGTTT,0.14

row,Sequence,relative binding free energy [kcal/mol]
1,GGAGTCACGTGAGGCA,0.2
2,TTTTGCACGTGCGTTC,-0.04
3,GGTGCCACGTGTACTG,0.07
4,GTTGGCACGTGTTCTT,-0.13
5,TAATGCACGTGTTCGA,0.05
6,CGGCGCACGTGGTGGT,-0.22
7,GGTGACACGTGGTGGA,0.05
8,GCTTACACGTGTGTGT,0.23
9,TTCTTCACGTGGTGCG,0.12
10,TCATTCACGTGAGTTG,0.35
11,TTAAACACGTGATTTA,0.03
12,GGCGTCACGTGAATGG,0.31
13,GATGTCACGTGAGGAG,0.31
14,TGTCGCACGTGACGTG,0.04
15,GTGGGCACGTGTGTGC,-0.11
16,TGTGCCACGTGGGCGT,-0.21
17,ATTTTCACGTGTTATT,0.23
18,GGTTACACGTGATAAT,0.21
19,TTGGACACGTGGGCGG,-0.18
20,TGTGGCACGTGAGCTG,0.04
21,TGGGTCACGTGGCGGC,0.1
22,AGGATCACGTGGTCGA,0.02
23,GTACGCACGTGTTTGA,-0.01
24,TGAAACACGTGACGGG,0.14
25,GCGATCACGTGGTGTT,0.22
26,AATTACACGTGGGGTA,-0.15

row,Sequence,relative binding free energy [kcal/mol]
1,TATATCACGTGGTGGT,0.07
2,TTTCGCACGTGAAGGT,0.12
3,GGAAACACGTGGATGT,0.22
4,CAGGTCACGTGGGTCG,-0.02
5,TGGGTCACGTGGTGAT,0.13
6,AATGTCACGTGAAGTA,0.2
7,AAGAGCACGTGGGGAG,-0.31
8,TGTTGCACGTGTGCGG,-0.06
9,AGTTCCACGTGGGGTT,0.07
10,TTATTCACGTGAATGC,0.28
11,TGTAGCACGTGTCATT,-0.12
12,AATGGCACGTGGATAA,-0.05
13,GTATCCACGTGGGTTA,-0.02
14,GTATACACGTGCTGGT,0.04
15,ATTCTCACGTGGGGAT,-0.02
16,AGAAGCACGTGTGTAA,-0.02
17,GCATTCACGTGGAGTT,0.33
18,GCGAGCACGTGGGGTA,-0.19
19,TAGGTCACGTGTATCG,0.13
20,ATGGGCACGTGAGCGG,-0.01
21,AGTGGCACGTGGCGTT,-0.15
22,GTATTCACGTGGTTAC,0.18
23,TTGGGCACGTGCGCGA,-0.23
24,GTTGTCACGTGCACGT,0.12
25,GGGCGCACGTGAAGGC,0.25
26,CGCTGCACGTGAGGGA,0.29

row,Sequence,relative binding free energy [kcal/mol]
1,ATTTTCACGTGGGCGA,0.07
2,TTCATCACGTGGTGTA,0.16
3,TTTATCACGTGAACGG,0.32
4,ATTGGCACGTGGGCTG,-0.22
5,AAATACACGTGGTGAG,0.14
6,CGTTTCACGTGAGTGT,0.34
7,AGTTTCACGTGGAATT,0.33
8,GATCGCACGTGTGGAG,0.13
9,ATTTGCACGTGGTAGT,0.04
10,CGTCGCACGTGTTGTG,-0.02
11,TAGGACACGTGGGAGC,-0.02
12,AGTAGCACGTGTCAGT,-0.09
13,GTAGACACGTGTTGAT,-0.03
14,GTTATCACGTGTTGCA,0.14
15,CGAGTCACGTGAGGAG,0.3
16,ATTATCACGTGATGAG,0.18
17,TGAGGCACGTGGTAGC,-0.16
18,TGAGTCACGTGTTTAT,0.2
19,TAATGCACGTGCGTTT,-0.09
20,TGGGGCACGTGATTGC,0.02
21,AGTATCACGTGAGTTT,0.41
22,TCGTTCACGTGGATGT,0.26
23,AGTTTCACGTGTATTA,0.21
24,ATTGTCACGTGGAGGT,0.09
25,GTAGCCACGTGTTGGA,-0.06
26,ATTGACACGTGAGGGA,0.27

row,Sequence,relative binding free energy [kcal/mol]
1,ATCGGCACGTGGGGGT,-0.22
2,TAAGGCACGTGCATGT,-0.16
3,AAATTCACGTGGGCTG,0.11
4,GGGCGCACGTGATGCG,0.18
5,CTTGACACGTGGTGGG,-0.12
6,ATGGACACGTGAGGGT,0.25
7,GTTGCCACGTGGTCTG,-0.19
8,TGAGACACGTGGGTTT,0
9,TTGGACACGTGTTCGT,0.04
10,TAGGTCACGTGTTTTT,0.32
11,GGGTTCACGTGTCGTT,0.44
12,TTGTGCACGTGGAAAA,0.2
13,GGGTTCACGTGTACGG,0.3
14,TGGGACACGTGATTGA,0.17
15,CTGTACACGTGAAGGT,0.25
16,CGATTCACGTGATGGT,0.3
17,GGTCACACGTGGTAAG,0.07
18,TGGGACACGTGGTCGC,0.01
19,GAGGGCACGTGCGGAG,-0.15
20,ATAGTCACGTGTGATA,0.19
21,AGGTGCACGTGAGCGT,-0.04
22,GTACACACGTGTGGTG,0.03
